# Measurements taken from patent US20250296936A1, “SARS-COV2 MAIN PROTEASE INHIBITORS” (Gilead Sciences, Inc., priority 2024, published 2025).
# Molecular target: recombinant SARS-CoV-2 Main protease (Mpro) (Severe acute respiratory syndrome coronavirus 2, UniProt P0DTD1)
# Assay: Cov Mpro Biochemical IC50 Assay
# Settings: 7.5 nM Mpro, fluorogenic peptide substrate 40 μM, 20 min pre-incubation; read-out: MPro IC50
row,SMILES,IC50 [nM]
1,"COc1cc(-c2cc3c(o2)c(=O)n(-c2cncc4ccccc24)c(=O)n3CCC#N)c(Cl)cc1F (single isomer, unassigned) [Example 59, 3-[6-(2-chloro-4-fluoro-5-methoxy-phenyl)-3-(4-isoquinolyl)-2,4-dioxo-furo[3,2-d]pyrimidin-1-yl]propanenitrile]",< 3.75
2,"COc1cc(-c2cc3c(o2)c(=O)n(-c2cncc4ccccc24)c(=O)n3CCC#N)c(Cl)cc1F (single isomer, unassigned) [Example 60, 3-[6-(2-chloro-4-fluoro-5-methoxy-phenyl)-3-(4-isoquinolyl)-2,4-dioxo-furo[3,2-d]pyrimidin-1-yl]propanenitrile]",59.6
3,"Cn1ncc2cncc(-n3c(=O)c4oc(-c5ccccc5Cl)cc4n(CCC#N)c3=O)c21 (single isomer, unassigned) [Example 61, 3-[6-(2-chlorophenyl)-3-(1-methylpyrazolo[4,3-c]pyridin-7-yl)-2,4-dioxo-furo[3,2-d]pyrimidin-1-yl]propanenitrile]",3.79
4,"Cn1ncc2cncc(-n3c(=O)c4oc(-c5ccccc5Cl)cc4n(CCC#N)c3=O)c21 (single isomer, unassigned) [Example 62, 3-[6-(2-chlorophenyl)-3-(1-methylpyrazolo[4,3-c]pyridin-7-yl)-2,4-dioxo-furo[3,2-d]pyrimidin-1-yl]propanenitrile]",95.6
5,"COc1cc(-c2cc3c(o2)c(=O)n(-c2cncc4cnn(C)c24)c(=O)n3CCC#N)c(Cl)cc1F (single isomer, unassigned) [Example 63, 3-[6-(2-chloro-4-fluoro-5-methoxy-phenyl)-3-(1-methylpyrazolo[4,3-c]pyridin-7-yl)-2,4-dioxo-furo[3,2-d]pyrimidin-1-yl]propanenitrile]",4.23
6,"COc1cc(-c2cc3c(o2)c(=O)n(-c2cncc4cnn(C)c24)c(=O)n3CCC#N)c(Cl)cc1F (single isomer, unassigned) [Example 64, 3-[6-(2-chloro-4-fluoro-5-methoxy-phenyl)-3-(1-methylpyrazolo[4,3-c]pyridin-7-yl)-2,4-dioxo-furo[3,2-d]pyrimidin-1-yl]propanenitrile]",60.4
7,"COc1cc(-c2cc3c(o2)c(=O)n(-c2cncc4cccnc24)c(=O)n3CCC#N)c(Cl)cc1F (single isomer, unassigned) [Example 65, 3-(6-(2-chloro-4-fluoro-5-methoxyphenyl)-3-(1,6-naphthyridin-8-yl)-2,4-dioxo-3,4-dihydrofuro[3,2-d]pyrimidin-1(2H)-yl)propanenitrile]",< 3.75
8,"COc1cc(-c2cc3c(o2)c(=O)n(-c2cncc4cccnc24)c(=O)n3CCC#N)c(Cl)cc1F (single isomer, unassigned) [Example 66, 3-(6-(2-chloro-4-fluoro-5-methoxyphenyl)-3-(1,6-naphthyridin-8-yl)-2,4-dioxo-3,4-dihydrofuro[3,2-d]pyrimidin-1(2H)-yl)propanenitrile]",79.3
9,COc1ccc(Cl)c(-c2cc3[nH]c(=O)n(-c4cncc5ccccc45)c(=O)c3o2)c1 [Example 3],12.8
10,O=c1[nH]c2cc(-c3ccccc3Cl)oc2c(=O)n1-c1cncc2c1CCCC2 [Example 5],67.6
11,Cn1ncc2cncc(-n3c(=O)[nH]c4cc(-c5ccccc5Cl)oc4c3=O)c21 [Example 6],52.7
12,O=c1[nH]c2cc(-c3ccccc3Cl)oc2c(=O)n1-c1cncc2ccc(F)cc12 [Example 7],42.2
13,Cc1cncc(-n2c(=O)[nH]c3cc(-c4ccccc4Cl)oc3c2=O)c1 [Example 8],35.9
14,Cn1ncc2cncc(-n3c(=O)[nH]c4cc(-c5ccc(F)cc5Cl)oc4c3=O)c21 [Example 9],304
15,COc1ccc2cncc(-n3c(=O)[nH]c4cc(-c5ccccc5Cl)oc4c3=O)c2c1 [Example 10],33.5
16,COc1cc(-c2cc3[nH]c(=O)n(-c4cnnc(C)c4)c(=O)c3o2)c(Cl)cc1F [Example 12],> 50000
17,O=c1[nH]c2oc(-c3ccccc3)nc2c(=O)n1-c1cncc2ccccc12 [Example 13],991
18,O=c1[nH]c2oc(-c3ccccc3Cl)cc2c(=O)n1-c1cncc2ccccc12 [Example 14],30.4

row,SMILES,IC50 [nM]
1,COc1cc(-c2cc3[nH]c(=O)n(-c4cccnn4)c(=O)c3o2)c(Cl)cc1F [Example 15],538
2,"COc1cc(-c2cc3c(o2)c(=O)n(-c2cncc4ccccc24)c(=O)n3CCC#N)c(Cl)cc1F [Example 16, 3-(6-(2-chloro-4-fluoro-5-methoxyphenyl)-3-(isoquinolin-4-yl)-2,4-dioxo-3,4-dihydrofuro[3,2-d]pyrimidin-1(2H1)-yl)propanenitrile]",9.59
3,COc1cc(-c2cc3c(o2)c(=O)n(-c2cncc4cnn(C)c24)c(=O)n3CCC#N)c(Cl)cc1F [Example 17],10.6
4,Cn1ncc2cncc(-n3c(=O)c4oc(-c5ccccc5Cl)cc4n(CCC#N)c3=O)c21 [Example 18],13.3
5,N#CCCn1c(=O)n(-c2cncc3ccccc23)c(=O)c2oc(-c3ccccc3Cl)cc21 [Example 19],9.39
6,COc1ccc2cncc(-n3c(=O)c4oc(-c5ccccc5Cl)cc4n(CCC#N)c3=O)c2c1 [Example 20],14
7,N#CCCn1c(=O)n(-c2cncc3c2CCCC3)c(=O)c2oc(-c3ccccc3Cl)cc21 [Example 21],17.1
8,N#CCCn1c(=O)n(-c2cncc3ccc(F)cc23)c(=O)c2oc(-c3ccccc3Cl)cc21 [Example 22],18
9,Cc1cncc(-n2c(=O)c3oc(-c4ccccc4Cl)cc3n(CCC#N)c2=O)c1 [Example 23],11.6
10,Cn1ncc2cncc(-n3c(=O)c4oc(-c5ccc(F)cc5Cl)cc4n(CCC#N)c3=O)c21 [Example 24],31
11,N#CCCn1c(=O)n(-c2cncc3ccccc23)c(=O)c2oc(-c3ccc(F)cc3Cl)cc21 [Example 25],24.6
12,COc1cc(-c2cc3c(o2)c(=O)n(-c2cccnn2)c(=O)n3CCC#N)c(Cl)cc1F [Example 26],68.3
13,COc1cc(-c2cc3c(o2)c(=O)n(-c2cnnc(C)c2)c(=O)n3CCC#N)c(Cl)cc1F [Example 27],934
14,"COc1cc(-c2cc3c(o2)c(=O)n(-c2cncc4ccccc24)c(=O)n3C)c(Cl)cc1F [Example 28, 6-(2-chloro-4-fluoro-5-methoxy-phenyl)-3-(4-isoquinolyl)-1-methyl-furo[3,2-d]pyrimidine-2,4-dione]",116
15,Cn1ncc2cncc(-n3c(=O)c4oc(-c5ccccc5Cl)cc4n(C)c3=O)c21 [Example 29],387
16,COc1cc(-c2cc3c(o2)c(=O)n(-c2cncc4cnn(C)c24)c(=O)n3C)c(Cl)cc1F [Example 30],273
17,Cn1c(=O)n(-c2cncc3ccccc23)c(=O)c2oc(-c3ccccc3Cl)cc21 [Example 31],147
18,COc1ccc2cncc(-n3c(=O)c4oc(-c5ccccc5Cl)cc4n(C)c3=O)c2c1 [Example 32],147

# Same assay, conditions: MPro IC50 (nM), 7.5 nM Mpro, fluorogenic peptide substrate 40 μM, 20 min pre-incubation
row,SMILES,IC50 [nM]
1,"O=c1[nH]c2cc(-c3ccccc3Cl)oc2c(=O)n1-c1cncc2ccccc12 [Example 4, 6-(2-chlorophenyl)-3-(4-isoquinolyl)-1H-furo[3,2-d]pyrimidine-2,4-dione]",92.1
2,"COc1cc(-c2cc3[nH]c(=O)n(-c4cncc5ccccc45)c(=O)c3o2)c(Cl)cc1F [Example 11, 6-(2-chloro-4-fluoro-5-methoxy-phenyl)-3-(4-isoquinolyl)-1H-furo[3,2-d]pyrimidine-2,4-dione]",45.1
